Source: publication PMC11335204
These are yes or no findings as the source states them, for the method shown. In cells and extracts the contact can be indirect. Some entries that bind do so weakly or less than the wild type.

Sequences of proteins named here, by UniProt entry; tags and fusion partners are left off. A change or cut given only in a name is not applied to a line headed by its entry. A line that says so, or that is headed by a name, gives the form on record, which may keep a tag or linker. Residues count along the entry.
GST fused to the 2-340 INF2 fragment (Q27J81, residues 2-340): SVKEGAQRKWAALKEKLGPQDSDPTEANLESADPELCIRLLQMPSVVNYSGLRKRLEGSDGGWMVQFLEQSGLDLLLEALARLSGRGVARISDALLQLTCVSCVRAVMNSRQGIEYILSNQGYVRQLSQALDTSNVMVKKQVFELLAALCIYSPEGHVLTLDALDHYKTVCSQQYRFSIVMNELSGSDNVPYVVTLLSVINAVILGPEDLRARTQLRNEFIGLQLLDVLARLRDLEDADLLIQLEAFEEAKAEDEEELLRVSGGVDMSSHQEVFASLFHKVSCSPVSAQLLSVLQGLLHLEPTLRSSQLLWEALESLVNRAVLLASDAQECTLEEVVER
GST fused to the 2-21 INF2 fragment (Q27J81, residues 2-21): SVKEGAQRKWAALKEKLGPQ
GST fused to the 19-340 INF2 fragment (Q27J81, residues 19-340): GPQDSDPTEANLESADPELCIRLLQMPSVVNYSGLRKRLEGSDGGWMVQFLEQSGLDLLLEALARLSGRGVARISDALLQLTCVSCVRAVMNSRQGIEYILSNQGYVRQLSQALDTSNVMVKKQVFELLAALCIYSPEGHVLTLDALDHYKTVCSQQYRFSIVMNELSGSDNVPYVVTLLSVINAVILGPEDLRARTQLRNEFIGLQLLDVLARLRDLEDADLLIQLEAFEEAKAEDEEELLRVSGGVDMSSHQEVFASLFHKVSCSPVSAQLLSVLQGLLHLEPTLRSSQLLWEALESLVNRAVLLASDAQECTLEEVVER
GST fused to the 2-340 INF2 fragment with the triple W11L14L18A mutation (Q27J81, form named): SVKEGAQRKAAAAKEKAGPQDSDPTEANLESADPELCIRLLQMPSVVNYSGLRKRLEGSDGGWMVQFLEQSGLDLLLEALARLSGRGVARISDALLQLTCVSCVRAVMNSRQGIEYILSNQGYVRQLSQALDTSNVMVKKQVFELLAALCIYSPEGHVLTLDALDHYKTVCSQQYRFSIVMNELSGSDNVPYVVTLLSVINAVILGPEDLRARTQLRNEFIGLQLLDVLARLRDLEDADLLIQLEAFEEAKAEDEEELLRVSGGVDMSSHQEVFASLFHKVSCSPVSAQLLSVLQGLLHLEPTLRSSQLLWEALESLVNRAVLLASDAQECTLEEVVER
UniProt Q12798: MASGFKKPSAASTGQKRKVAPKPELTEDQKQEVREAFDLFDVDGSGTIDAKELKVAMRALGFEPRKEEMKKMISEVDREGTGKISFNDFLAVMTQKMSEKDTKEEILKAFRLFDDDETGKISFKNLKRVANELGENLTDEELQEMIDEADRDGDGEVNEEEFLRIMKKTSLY

How the values were obtained:
Test in all cases: pull-down; 30 µg GST-fused INF2 fragments immobilized on glutathione-Sepharose 4B beads, incubated 3 h at 4 °C with lysates of HEK293T cells expressing GFP fusions; 20 mM Tris-HCl pH 7.8, 150 mM NaCl, 1% Nonidet P-40, 1% glycerol, 5 mM CaCl2; immunoblotting; only the target purified
[1] = molecular target: GST fused to the 2-340 INF2 fragment (human) (UniProt Q27J81)
[2] = molecular target: GST fused to the 19-340 INF2 fragment (human) (UniProt Q27J81)
[3] = molecular target: GST fused to the 2-340 INF2 fragment with the triple W11L14L18A mutation (human) (UniProt Q27J81)
[4] = molecular target: GST fused to the 2-21 INF2 fragment (human) (UniProt Q27J81)

## GFP fused to centrin-1 (from UniProt Q12798 1-172)
[1]
  binding: binds
[2]
  binding: no binding
[3]
  binding: no binding
[4]
  binding: binds
